Test results as given in PubChem BioAssay AID1508642 (National Center for Advancing Translational Sciences (NCATS), 2021).
Among all 43,000 compounds or so, about 200 (0.47%) were called active. Not shown: some 12% with an inconclusive outcome. The call rests on the fitted dose curve; in most records, active means well fitted cell-killing curve with a large enough effect; inconclusive means small, poorly fitted or top-dose-only effect, or effect the other way; inactive means flat fitted curve, though single readings scatter. The list shows a part of the results.

Test: Cell viability qHTS assay in S16 Pmp22-F2sN cells; further: nearly all actives have a fitted effect of over 65% in size
Conditions: S16 Pmp22-F2sN Schwann cells (luciferase reporters placed in the Pmp22 gene) viability, CellTiter-Glo, 24 h; series mostly up to 57.5 µM; activity change, negative = cytotoxicity: at the top concentration
In short: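 Seed 500-1,000 S16 Pmp22-F2sN cells per well in phenol-red-free DMEM with 10% heat-inactivated FBS; pin-add 23 nL compound; incubate 24 h at 37C; add CellTiter-Glo, wait 15 min protected from light; read luminescence.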
On the % scale 0 is the no-effect control and ±100 the full control effect.

Row | Compound | activity change, negative = cytotoxicity
1 | COc1ccc(NC(=O)c2oc3ccc(S(=O)(=O)N4CCCCC4)cc3c2C)cc1 | inactive: -16.1%
2 | CCCc1nn2c(=O)cc(COC(=O)c3ccccc3NC(=O)COc3ccccc3F)nc2s1 | inactive: 14.3%
3 | Cc1ccccc1NC(=O)CSc1nc2nccnc2c(=O)n1CCc1c[nH]c2ccccc12 | inactive: 5.88%
4 | Cc1cc(C)cc(OCC(=O)Nc2c(C)ccc3nsnc23)c1 | inactive: 15.1%
5 | COc1ccc(S(=O)(=O)c2cnc3ccc(Cl)cc3c2N2CCCCC2C)cc1 (stereo unspecified) | inactive: -12.7%
6 | CCCCN(C)CCCNC(=O)Cn1ncc2c3ccccc3n(Cc3ccccc3)c2c1=O | inactive: 7.91%
7 | Cc1cccc(NC(=O)CSc2nccn2Cc2ccc(F)cc2)c1C | inactive: 3.67%
8 | CCOc1ccc(N(CC)S(=O)(=O)c2cc(Br)cc3c2N(C(C)=O)C(C)C3)cc1 (stereo unspecified) | inactive: -7.47%
9 | Cc1cccc(N2CCN(C(=O)Cn3nc(C)n4cccc4c3=O)CC2C)c1 (stereo unspecified) | inactive: 4.61%
10 | O=C(Cc1ccccc1)Nc1sc2c(c1C(=O)Nc1ccc(Br)cc1)CCC2 | inactive: 9.23%
11 | Cc1ccc2oc(C(=O)Nc3cccc(Cl)c3)cc(=O)c2c1 | inactive: -2.43%
12 | COc1ccccc1C(=O)Nc1ccccc1OCc1cc(=O)n2ccccc2n1 | inactive: 12.5%
13 | Cc1c(C(=O)Nc2nc(-c3ccc(F)cc3)ns2)oc2ccc(Cl)cc12 | inactive: 0.0502%
14 | Cc1ccc(CCNC(=O)CS(=O)Cc2nc(-c3ccccc3Cl)oc2C)cc1 (stereo unspecified) | inactive: 2.52%
15 | COc1cccc(N2CC(NC(=O)c3ccc(S(=O)(=O)N4CCOCC4)cc3)CC2=O)c1 (stereo unspecified) | inactive: 4.93%
16 | O=C(c1cnn(-c2ccc(F)cc2)c1-n1cccc1)N1CCN(c2ccc(F)cc2)CC1 | inactive: -1.47%
17 | CCNc1nc(NCc2ccc(F)cc2)c2cnn(C)c2n1 | inactive: -28.8%
18 | CC1=C(C(=O)Nc2cccc(Cl)c2C)C2(CCCCCC2)OC1=O | inactive: -11.4%
19 | CC1CCN(S(=O)(=O)c2ccc3c(c2)CCN3)CC1 | inactive: -1.34%
20 | COc1ccccc1Nc1sc(C(=O)c2ccc(C)cc2C)c(N)c1S(=O)(=O)c1ccccc1 | inactive: -0.378%
21 | CCc1ccc(S(=O)(=O)c2nnn3c2nc(Nc2cc(OC)ccc2OC)c2sccc23)cc1 | inactive: 1.89%

Row | Compound | activity change, negative = cytotoxicity
22 | CCOc1ccc(NC(=O)c2ccc3[nH]c(C)c(C)c3c2)cc1 | inactive: -0.0521%
23 | O=C(Cn1c(SCc2ccccc2F)nc2ccncc21)Nc1ccccc1C(F)(F)F | inactive: 0.664%
24 | O=C(Cn1c(=O)c2cccn2c2cccnc21)NCc1cccc(F)c1 | inactive: -1.29%
25 | Cc1ccc(S(=O)(=O)Nc2cccc(-c3cn4cccc(C)c4n3)c2)c(C)c1 | inactive: 1.59%
26 | CCOc1cc(C(=O)NCCc2sc(-c3ccc(F)cc3)nc2C)cc(OCC)c1OCC | inactive: 7.58%
27 | CNC(=O)CCCN1C(=O)c2cccnc2Sc2ccccc21 | inactive: 11.7%
28 | Cc1nc2ccc(S(=O)(=O)N(CC(=O)Nc3ccc(F)cc3F)Cc3ccccc3)cc2s1 | inactive: -1.12%
29 | CCCCC(=O)OC1=C(C(=O)c2ccccc2)N(CCC)S(=O)(=O)c2ccccc21 | inactive: -22.2%
30 | CC(NC(=O)CSc1n[nH]c(-c2ccccc2Cl)n1)c1nc2ccccc2[nH]1 (stereo unspecified) | inactive: 25%
31 | Cc1ccsc1CN1CCc2nc(Nc3ccccc3)ncc2C1 | inactive: 0.375%
32 | CCc1ccc(NC(=O)CSC2=Nc3ccccc3C3=NC(CCC(=O)NCc4ccccc4)C(=O)N23)cc1 (stereo unspecified) | inactive: 6.83%
33 | CCCCN(C)C(=O)c1cn(C)c2ccc(S(=O)(=O)N3CCC(C)CC3)cc2c1=O | inactive: 6.16%
34 | O=C(Cn1ccc2cc(S(=O)(=O)N3CCCCC3)ccc21)NCCc1ccccc1Cl | inactive: -25.8%
35 | COc1ccccc1NC(=O)Cn1c(=O)n(Cc2ccccc2)c(=O)c2c1c1cc(C)ccc1n2C | inactive: 3.05%
36 | COc1cccc(NC(=O)CCNS(=O)(=O)c2ccc3c(c2)oc(=O)n3C)c1 | inactive: 6.59%
37 | CC(=O)c1cccc(NC(=O)c2nc(-c3ccccc3)n(-c3ccccc3)n2)c1 | inactive: 4.49%
38 | O=C1CCCc2cc(S(=O)(=O)N3CCCC(C(=O)NCc4ccccc4)C3)ccc2N1 (stereo unspecified) | inactive: 8.22%
39 | COc1cc2c(cc1OC)n(Cc1cccc(C(F)(F)F)c1)c(=O)n1nc(-c3ccccc3)nc21 | inactive: 18.2%
40 | Cc1cc(C)c(NC(=O)CN(C)S(=O)(=O)c2ccc3c(c2)CCC(=O)N3)c(C)c1 | inactive: 1.81%
41 | COc1cc2c(cc1OC)C(COc1cccc(C(F)(F)F)c1)N(C(=O)c1ccc(S(=O)(=O)N3CCCC3)cc1)CC2 (stereo unspecified) | inactive: 3.33%
42 | CCC(C)NC(=O)C1CCN(S(=O)(=O)c2ccc3c(c2)CCCN3C(C)=O)CC1 (stereo unspecified) | inactive: 1.8%

Row | Compound | activity change, negative = cytotoxicity
43 | CCn1cc(C(=O)N2CCN(c3ccc(C)cc3)C(C)C2)c(=O)c2cc(S(=O)(=O)N3CCCC3)ccc21 (stereo unspecified) | inactive: 4.17%
44 | CCc1ccccc1NC(=O)C(=O)NCCCN1CCOCC1 | inactive: 12.3%
45 | Cc1cc(C)c(NC(=O)CCS(=O)(=O)c2cc3c(cc2Cl)NC(=O)CO3)c(C)c1 | inactive: 7.73%
46 | O=C(CSCn1nnc2c(=O)[nH]c(Cc3ccc(F)cc3)nc21)Nc1cccc(C(F)(F)F)c1 | inactive: 1.61%
47 | CC(=O)Nc1ccc(NC(=O)CCCn2nc(C)c3sc4ccccc4c3c2=O)cc1 | inactive: 9.83%
48 | CCOc1ccc(N(C)S(=O)(=O)c2ccc3c(c2)CCCN3C(C)=O)cc1 | inactive: -7.93%
49 | CC1CCN(C(=O)c2cc(-c3ccc(Br)cc3)on2)CC1 | inactive: -0.306%
50 | CCOc1ccc(CNS(=O)(=O)c2ccc3c(c2)CCCN3C(C)=O)cc1OC | inactive: -8.35%
51 | CCOC(=O)C1CCCN(C(=O)c2nn(-c3ccc(C)cc3)c(=O)n(C)c2=O)C1 (stereo unspecified) | inactive: -8.86%
52 | CCc1nnc2c(N3CCN(c4cc(Cl)ccc4C)CC3)nc3ccccc3n12 | inactive: -0.6%
53 | CCCN(C(=O)c1cc2c(=O)[nH]c3ccc(C)cc3c2s1)c1ccc(CC)cc1 | inactive: 23.5%
54 | COc1ccc(-c2noc(COc3cc(C)ccc3C)n2)cc1OC | inactive: -1.7%
55 | O=C(COc1ccc(F)cc1)Nc1ccc2nc(SCC(=O)N3CCOCC3)sc2c1 | inactive: -3.08%
56 | CC(C)c1ccc(N2C(=O)CSC23C(=O)N(C)c2ccccc23)cc1 (stereo unspecified) | inactive: 27.8%
57 | O=C1[C@@H]2CSC(c3ccc(Cl)cc3)N2C(=O)N1c1ccccc1 (stereo partly specified) | inactive: 4.29%
58 | COc1ccc(C2=NC(c3ccncc3)=Nc3ccc(OC)cc3N2)cc1 | inactive: -24.7%
59 | COc1ccc(-c2noc(N3CCC(C(=O)N4CCN(c5cccc(C)c5C)CC4)CC3)n2)cc1 | inactive: 8.52%
60 | COc1ccc(C2=C(C)C(=O)N(Cc3ccc(C(=O)NCc4cccc(C)c4)cc3)S2(=O)=O)cc1 | inactive: -9.01%
61 | COc1ccc2c(c1)c(N1CCCC1=O)c(C(=O)Nc1ccccc1C(F)(F)F)n2C | inactive: 8.68%
